# Source: the supplement of paper PMC11417369
# Some of the results follow.
# Tested on: PF3D7_0420300 AP2 domain 1 (GST-tagged)
# Experiment: gcPBM binding intensity (ln(normalized median fluorescence intensity)); higher = stronger DNA binding
# In short: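 Each value is the highest Masliner-normalised natural-log median intensity across replicate spots of either orientation of a probe. The probes were primer-extended double-stranded 36-bp intergenic genomic sequences on an Agilent 4 × 180k array, alongside negative controls, exposed for 1 h to GST-tagged P. falciparum DNA-binding domains expressed in E. coli. Bound protein was picked up with Alexa488 anti-GST antibody and scanned at 488 nm.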
row,Sequence,gcPBM binding intensity (ln)
1,TATATATATATTATATGTACATAAATATTTATACTC [XGTACX_site114],9.18
2,CTATTTTATATGTGCACACATATACACCCACAAATA [CACACA_site1131],9.59
3,TTGATAAAATGGGAGAAATTAAAAAGGAAAAAAAAA [CACACA_negctrl_site1279],9.23
4,TTATAAAATTTTCTTCTATATTTTAATTATTCTCAT [TGCATGCA_negctrl_site571],9.18
5,TCTCATAGGAAACACACACACACACCCACATATATA [CACACA_site1738],10.2
6,ATATATTTTTTAAATTTAAAAATTATAAAATTTATA [TGCATGCA_negctrl_site36],8.82
7,TAAATAAAAAAAAAAAGTACATACATACAAACATAT [XGTACX_site4427],9.58
8,ATATATGTGCGCGTATGTACATAAAATAAATATACA [XGTACX_site2689],9.58
9,TGGGTCTCTAACTGGTGTACTATTTACATATTATAC [XGTACX_site8593],9.52
10,TATGATTTTAACAACTGTACAATATAATAAATCTAA [XGTACX_site2198],9.01
11,ATATATTTTTAATTACGTACTTAATAATATATACAA [XGTACX_site3285],9.11
12,TAAAAGAAAAATTAGTGTACCAATATTAACATAAAA [XGTACX_site5474],9.25
13,TATATATTAAAATAATCACACACATCAATTAATGGT [CACACA_site8331],9.65
14,AAAAAATTATTAATTTGTACATAAATAACCAAAAAA [XGTACX_site2488],9.16
15,TAATTTATTACCATGTAATTATTACGAATATAGGAT [CACACA_negctrl_site694],9.04
16,TTAAATATAATTATATGTACATATTTATGTATATAT [XGTACX_site5811],9.1
17,AGATTGTATTTATGTACACACATTTTTGGAATATGA [CACACA_site1340],9.49
18,TTGATTAAAATTAGTACACACAAAATACATGCGGGG [CACACA_site5284],9.73
19,AATTTACAAAAAAGAAAAAAAAAAAAAAAGATACTT [CACACA_negctrl_site1434],9.18
20,ATATGCACTCATTGTGCACACGCATATTACGAAAAG [CACACA_site2637],9.24
21,ATATTATAATGTTTTTACGAATTCGCAAATTATTAT [GTGCAC_negctrl_site470],9.24
22,TTTTTTTTTTTTTTTTTTTTTTTTTTATGATATATA [GTGCAC_negctrl_site365],8.34
23,TTAATTATCCATTTTGCACACATTTTAAAACATGAA [CACACA_site189],9.36
24,TATTATTTACTTATTGCACACATATAAAATATATTT [CACACA_site9017],9.48
